Results as given in the antibiotic and cytotoxicity screens of Wong et al. (2023).
Some of the results follow.

Experiments:
HSkMC = human skeletal muscle cells; experiment: cytotoxicity call (relative viability < 0.9); details: 10 µM
HepG2 = experiment: cytotoxicity call (relative viability < 0.9); details: 10 µM
S. aureus RN4220 = experiment: growth inhibition call (relative growth <= 0.2); details: 50 µM

Row | SMILES | cytotoxicity call (HSkMC) | cytotoxicity call (HepG2) | growth inhibition call (S. aureus RN4220)
1 | C[C@@H]1CN([C@@H](C)CO)C(=O)c2cc(NC(=O)Nc3ccccc3)ccc2O[C@@H](C)CCCCO[C@H]1CN(C)C(=O)c1ccccc1 | inactive | inactive | inactive
2 | Cc1noc(C)c1NC(=O)N(C)C[C@@H]1Oc2ccc(NC(=O)Nc3cccc4ccccc34)cc2C(=O)N([C@@H](C)CO)C[C@H]1C | inactive | inactive | inactive
3 | C[C@H](CO)N1C[C@H](C)[C@H](CN(C)C(=O)C2CCCCC2)OCCCC[C@H](C)Oc2ccc(NC(=O)Cc3ccccc3)cc2C1=O | inactive | inactive | inactive
4 | O=NN(CCCl)C(=O)NC1CCCCC1 | inactive | inactive | inactive
5 | CC(=O)n1cc([C@@H]2C=C(C(=O)N3CCN(Cc4ccccc4)CC3)O[C@H](OCc3ccc(CO)cc3)C2)c2ccccc21 | inactive | inactive | inactive
6 | COc1ccccc1Nc1nc(-c2ccc(Cl)cc2)cs1 | inactive | inactive | inactive
7 | CN1C(=O)c2cc(NS(=O)(=O)c3cccc(F)c3)ccc2OC[C@H]2O[C@@H](CC(=O)NCCN3CCCCC3)CC[C@H]21 | inactive | inactive | inactive
8 | COc1ccc(NC(=O)N(C)C[C@H]2Oc3ccc(NS(C)(=O)=O)cc3C(=O)N([C@H](C)CO)C[C@H]2C)cc1 | inactive | inactive | inactive
9 | NC(=O)c1c(F)c(F)c(N)c(F)c1F | inactive | inactive | inactive
10 | C[C@@H]1CN([C@@H](C)CO)C(=O)c2cccc(NC(=O)Nc3ccc(C(F)(F)F)cc3)c2O[C@H]1CN(C)S(=O)(=O)c1ccc(F)cc1 | inactive | inactive | inactive
11 | COc1cccc(C#Cc2ccc3c(c2)O[C@@H](CN(C)C(=O)c2ccccn2)[C@H](C)CN([C@H](C)CO)S3(=O)=O)c1 | inactive | inactive | inactive
12 | C[C@H]1CN([C@@H](C)CO)C(=O)c2cc(C#CC3(O)CCCC3)cnc2O[C@H]1CN(C)C(=O)C1CCCCC1 | inactive | inactive | inactive
13 | CCC(=O)Nc1ccc2c(c1)C(=O)N(C)C[C@H](OC)[C@@H](C)CN(C(=O)CN1CCOCC1)[C@@H](C)CO2 | inactive | inactive | inactive
14 | COC1C(OC(N)=O)C(O)C(Oc2ccc3c([O-])c(NC(=O)c4ccc(O)c(CC=C(C)C)c4)c(=O)oc3c2C)OC1(C)C.[Na+] (stereo not drawn) | inactive | inactive | active
15 | Cc1noc(C)c1S(=O)(=O)N(C)C[C@H]1OCCCC[C@@H](C)Oc2ccc(NC(=O)Nc3ccc(F)cc3)cc2C(=O)N([C@@H](C)CO)C[C@@H]1C | inactive | inactive | inactive
16 | C[C@@H]1CN([C@@H](C)CO)C(=O)c2cc(NS(=O)(=O)c3ccc(F)cc3)ccc2O[C@H]1CN(C)Cc1ccc(-c2ccccc2)cc1 | inactive | inactive | inactive
17 | C[C@@H]1CN([C@@H](C)CO)C(=O)Cc2cc(NS(=O)(=O)c3cccs3)ccc2O[C@H]1CN(C)Cc1ccc(-c2ccccc2)cc1 | inactive | inactive | inactive
18 | C[C@@H]1CN([C@@H](C)CO)C(=O)c2cc(NC(=O)Nc3ccc(F)cc3)ccc2O[C@@H]1CN(C)Cc1ccc(-c2ccccc2)cc1 | active | active | inactive
19 | COc1ccc(NC(=O)Nc2cccc3c2O[C@H](CN(C)Cc2ccc(-c4ccccc4)cc2)[C@@H](C)CN([C@@H](C)CO)C3=O)cc1 | active | active | inactive

Row | SMILES | cytotoxicity call (HSkMC) | cytotoxicity call (HepG2) | growth inhibition call (S. aureus RN4220)
20 | C=CC(=O)NCCc1ccncc1 | inactive | inactive | inactive
21 | Cc1ccc(S(=O)(=O)N(C)C[C@@H]2Oc3ccc(NC(=O)c4ccncc4)cc3CC(=O)N([C@@H](C)CO)C[C@@H]2C)cc1 | inactive | inactive | inactive
22 | O=C(C[C@@H]1C=C[C@H](NC(=O)CN2CCOCC2)[C@@H](CO)O1)NC1CCCCC1 | inactive | inactive | inactive
23 | C[C@@H]1CN([C@H](C)CO)C(=O)c2cc(NC(=O)Nc3ccc(F)cc3)ccc2O[C@@H](C)CCCCO[C@@H]1CN(C)S(=O)(=O)c1cccs1 | inactive | inactive | inactive
24 | CC(C)N1CC2(CN(Cc3ccc(Cl)c(Cl)c3)C2)Oc2c(NC(=O)c3ccncc3)cccc2C1=O | inactive | inactive | inactive
25 | Nc1nonc1C(=O)NCc1ccco1 | inactive | inactive | inactive
26 | CO[C@@H]1CN(C)C(=O)c2ccc(NS(=O)(=O)c3cn(C)cn3)cc2OC[C@H](C)N(CC2CC2)C[C@H]1C | inactive | inactive | inactive
27 | CC(C)NC(=O)N(C)C[C@@H]1Oc2ccc(NS(=O)(=O)c3ccccc3)cc2CC(=O)N([C@H](C)CO)C[C@H]1C | inactive | inactive | inactive
28 | C[C@H]1CN([C@@H](C)CO)S(=O)(=O)c2ccc(C#Cc3ccncc3)cc2O[C@H]1CN(C)S(=O)(=O)c1ccccc1 | inactive | active | inactive
29 | C[C@@H]1CN([C@@H](C)CO)C(=O)c2cc(C#CCN(C)C)cnc2O[C@@H]1CN(C)C(=O)c1cnccn1 | inactive | inactive | inactive
30 | N#Cc1ncoc1N1CCC(C(N)=O)CC1 | inactive | inactive | inactive
31 | C[C@@H]1CN([C@H](C)CO)C(=O)Cc2cc(NC(=O)Cn3cnnn3)ccc2O[C@H]1CN(C)Cc1ccc(C(F)(F)F)cc1 | inactive | inactive | inactive
32 | Cc1ccc(S(=O)(=O)Nc2cccc3c2O[C@H](CN(C)S(=O)(=O)c2c(C)noc2C)[C@H](C)CN([C@H](C)CO)C3=O)cc1 | inactive | inactive | inactive
33 | C[C@H]1CN([C@@H](C)CO)C(=O)c2cccc(NC(=O)c3ccncc3)c2O[C@@H]1CN(C)Cc1ccncc1 | inactive | inactive | inactive
34 | CCOC(=O)[C@H]1CN(C(C)(C)C)C(=O)C1=O | inactive | inactive | inactive
35 | C[C@@H]1CN([C@H](C)CO)C(=O)c2cccc(NC(=O)Nc3cccc4ccccc34)c2O[C@@H]1CN(C)Cc1ccc(C(=O)O)cc1 | inactive | inactive | inactive
36 | C[C@@H]1CCCCO[C@H](CN(C)C(=O)c2ccccc2)[C@@H](C)CN([C@H](C)CO)C(=O)c2cc(NS(=O)(=O)c3cccs3)ccc2O1 | inactive | inactive | inactive
37 | C[C@H](CO)N1C[C@H](C)[C@H](CN(C)S(C)(=O)=O)Oc2ccc(NC(=O)CCC(F)(F)F)cc2CC1=O | inactive | inactive | inactive
38 | Cc1noc(C)c1S(=O)(=O)Nc1ccc2c(c1)C(=O)N([C@H](C)CO)C[C@@H](C)[C@H](CN(C)C(=O)Nc1ccccc1)OCCCC[C@@H](C)O2 | inactive | inactive | inactive

Row | SMILES | cytotoxicity call (HSkMC) | cytotoxicity call (HepG2) | growth inhibition call (S. aureus RN4220)
39 | CN(C)CC#Cc1ccc([C@H]2[C@H]3CN(C(=O)CN(C)C)CCCCN3[C@H]2CO)cc1 | inactive | inactive | inactive
40 | O=C(C[C@H]1CC[C@@H]2[C@H](COC[C@H](O)CN2S(=O)(=O)c2ccccc2F)O1)NCc1ccccc1F | inactive | inactive | inactive
41 | COc1ccccc1CNC(=O)C[C@H]1C[C@H]2c3cc(NS(=O)(=O)c4ccc(F)cc4)ccc3O[C@H]2[C@@H](CO)O1 | inactive | inactive | inactive
42 | CN(C)CCCNC(=O)C[C@H]1CC[C@@H]2[C@H](COc3ccc(NC(=O)c4ccccc4F)cc3C(=O)N2C)O1 | inactive | inactive | inactive
43 | C[C@@H]1CCCCO[C@@H](CN(C)C(=O)Nc2ccc3c(c2)OCO3)[C@@H](C)CN([C@H](C)CO)C(=O)c2cc(NC(=O)Nc3ccccc3)ccc2O1 | inactive | inactive | inactive
44 | C[C@@H]1CCCCO[C@@H](CN(C)Cc2ccc(C(F)(F)F)cc2)[C@H](C)CN([C@@H](C)CO)C(=O)c2cc(NC(=O)CCCN(C)C)ccc2O1 | inactive | inactive | inactive
45 | C[C@@H]1CN([C@@H](C)CO)C(=O)c2cc(NC(=O)Cn3cnnn3)ccc2O[C@H]1CN(C)S(C)(=O)=O | inactive | inactive | inactive
46 | C[C@H](CO)N1C[C@H](C)[C@H](CN(C)Cc2ccncc2)Oc2ncc(C#Cc3ccc(F)cc3)cc2C1=O | inactive | inactive | inactive
47 | O=C(C[C@@H]1C[C@@H]2c3cc(NS(=O)(=O)c4ccc(F)cc4)ccc3O[C@@H]2[C@@H](CO)O1)NCc1ccncc1 | inactive | inactive | inactive
48 | COc1ccc(S(=O)(=O)N(C)C[C@H]2OCCCC[C@H](C)Oc3ccc(NC(=O)Nc4ccc(F)cc4)cc3C(=O)N([C@@H](C)CO)C[C@H]2C)cc1 | inactive | inactive | inactive
49 | C[C@H]1CN([C@@H](C)CO)C(=O)c2cc(NC(=O)CCN3CCOCC3)ccc2O[C@@H]1CN(C)S(=O)(=O)c1ccc(Cl)cc1 | inactive | inactive | inactive
50 | N[C@@]1(C(=O)O)CO[C@H]2[C@H](C(=O)O)[C@H]21 | inactive | inactive | inactive
51 | CO[C@H](CN(C)C(=O)C1CCOCC1)[C@H](C)CN(C(=O)Nc1ccc(C(F)(F)F)cc1)[C@H](C)CO | inactive | inactive | active
52 | C[C@H]1CN([C@@H](C)CO)C(=O)Cc2cc(NC(=O)c3ccncc3)ccc2O[C@@H]1CN(C)C(=O)Nc1ccc2c(c1)OCO2 | inactive | inactive | inactive
53 | Cc1noc(C)c1NC(=O)N(C)C[C@H]1Oc2c(NC(=O)c3ccc(-c4nccs4)cc3)cccc2C(=O)N([C@H](C)CO)C[C@@H]1C | inactive | inactive | inactive
54 | C[C@@H]1CCCCO[C@@H](CN(C)C(=O)Nc2cccc3ccccc23)[C@H](C)CN([C@H](C)CO)C(=O)c2cc(NC(=O)C3CCCCC3)ccc2O1 | inactive | active | inactive
55 | C[C@H]1CN([C@@H](C)CO)C(=O)c2cc(NC(=O)CCC(F)(F)F)ccc2O[C@H]1CN(C)Cc1ccc(Oc2ccccc2)cc1 | inactive | active | inactive
56 | C[C@H]1CN([C@@H](C)CO)C(=O)Cc2cc(NC(=O)CCN3CCOCC3)ccc2O[C@H]1CN(C)S(=O)(=O)c1ccc(F)cc1 | inactive | inactive | inactive
